Experimental data from PubChem BioAssay AID493208 (National Center for Advancing Translational Sciences (NCATS), 2011).
Out of some 44,000 compounds screened, about 340 (0.77%) were called active. Roughly 5% stayed inconclusive and do not appear here. Calls come from the whole dose curve; as a rule, active = well fitted inhibition curve with a large enough effect; inconclusive = small, poorly fitted or top-dose-only effect; inactive = flat fitted curve, though single readings scatter. Some of the results follow.

Test: Acumen qHTS Assay for Inhibitors of the mTORC1 Signaling Pathway in MEF (Tsc2-/-, p53-/-) Cells: Sytravon; note: nearly all actives have a fitted effect of over 50% in size;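 for activity change, negative = inhibition: plate controls were DMSO for no effect and rapamycin for full effect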
Settings: phospho-rpS6 immunofluorescence/PI, 24 h; series mostly up to 38.3 µM; activity change, negative = inhibition: at the top concentration
Outline: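 Compounds act on Tsc2-/-, p53-/- fibroblasts carrying an empty vector for 24 h before fixation and dual staining for phospho-S6 and DNA (propidium iodide). Values are percentages of cells above a rapamycin-defined pS6/PI threshold.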
Potency is the fitted concentration of half-maximal effect.

Activity change, negative = inhibition, inactive:
Cc1ccc(S(=O)(=O)NCC(c2ccc(N(C)C)cc2)N2CCc3ccccc32)cc1 (stereo not given) 0%
CCCCSCCCNC(=O)c1c[nH]c2ccc(S(=O)(=O)Nc3cccc(OC)c3)cc2c1=O -4.03%
Cc1cc2nc(N(Cc3cccnc3)C(=O)c3ccc(Cl)s3)sc2cc1C -2.68%
COc1ccc(-n2ccnc(NCCc3ccc(Cl)cc3)c2=O)cc1OC 1.69%
COc1ccccc1CN1C(=O)C(=O)c2cccc(C)c21 -2.1%
O=C(Cc1ccccc1)Nc1nnc2n1CCS2 1.78%
CC(=O)N1c2ccc(S(=O)(=O)N(C)CC(=O)N(Cc3ccccc3)C(C)C)cc2CC1C (stereo not given) -3.48%
CC(C)(C)c1ccc(C(=O)N2CCN(CCc3ccccn3)CC2)cc1 0.178%
CCC(C)NC(=O)Cn1c(=O)n(-c2ccc(C)c(C)c2)c(=O)c2c(C)c(C(=O)N(CC)CC)sc21 (stereo not given) 0.708%
CCOc1ccccc1C(=O)N1CC(=O)Nc2ccc(C)cc2C1c1ccccc1 (stereo not given) -20.8%
Cc1ccc(CN2c3ccccc3-c3nc(SCC(=O)Nc4c(C)cc(C)cc4C)ncc3S2(=O)=O)cc1 -7.95%
CCOc1ccccc1NC(=O)N1CCc2c(sc3c2CCCC3)C1c1ccccc1 (stereo not given) 0%
O=C(OCc1ccccc1Cl)c1ccc(-c2nnn(Cc3ccc(F)cc3)n2)cc1 9.8%
Cc1nn2c(=O)cc(COc3ccc(/C=C(\C#N)C(=O)Nc4ccccc4)cc3Cl)nc2s1 0.739%
Brc1ccc2c(c1)NC(c1cccnc1)=NC(c1ccccc1)=N2 -3.38%
CCOc1cc(C(=O)NCc2nc(-c3cccc(C)c3)no2)cc(OCC)c1OCC 3.55%
COC(=O)c1ccccc1NC(=O)c1cc(CN2CCOCC2)on1 0%
CCc1cccc(C)c1Nc1c(-c2cccs2)nc2nc(C)cc(C)n12 -10.7%
CCC(=O)Nc1ccc(CC)cc1-c1nc2ccccc2n(CC(=O)Nc2ccccc2C)c1=O -3.97%
Cc1ccc(NC(=O)Cn2c(=O)oc3cc(S(=O)(=O)N4CCCCC4)ccc32)c(C)c1 -9.79%
COc1ccc(-c2onc(C)c2C)cc1S(=O)(=O)Nc1cc(Cl)ccc1C 0%
O=C(CSc1nc2ccccc2nc1Cc1ccccc1F)Nc1cccc(C(F)(F)F)c1 -4.23%
CCN(CC)c1ccc(NC(=O)CCS(=O)(=O)c2ccc3c(c2)oc(=O)n3C)c(C)c1 4.62%
Cc1ccc(CNc2ncnc3onc(C)c23)cc1 -8.67%
CCCOc1ccc(C2c3c(-c4ccccc4O)n[nH]c3C(=O)N2Cc2cccnc2)cc1 (stereo not given) -13%
CC(C)OCCCn1c(=O)c2ccccc2n2c(-c3cc(Cl)ccc3O)nnc12 0%
COc1cc(C(=O)Nc2ccc(-c3nc4ccccc4o3)c(O)c2)cc(OC)c1OC -2.87%
Cc1cn2c(=O)cc(COC(=O)c3ccc(NC(=O)COc4ccc(C)c(C)c4)cc3)nc2s1 16.7%
COc1cc2c(cc1OC)C(COc1ccc(F)cc1)N(C(=O)Cc1ccccc1)CC2 (stereo not given) 11.3%
CCc1ccccc1NC(=O)CN1C(=O)c2cccnc2Sc2ccccc21 -2.36%
Cc1ccc(Cn2c(CNC(=O)Cc3cccc([N+](=O)[O-])c3)nc3cccnc32)cc1 -4.78%
CC(NC(=O)CSc1nc(-c2cccc(Cl)c2)nc2cc(=O)[nH]n12)c1nc2ccccc2n1C (stereo not given) 11.3%
COCc1nc2ccccc2n1Cc1cccc(C)c1 -0.896%
CCn1c(=N)c(C(=O)NCC2CCCO2)cc2c(=O)n3cc(C)ccc3nc21 (stereo not given) -6.04%
O=S(=O)(NCC(c1ccccc1)N1CCc2ccccc21)c1ccccc1 (stereo not given) 2.06%
CCn1c(=O)cc(OCC(=O)N2CCN(c3cccc(Cl)c3)CC2)c2ccccc21 0.624%
CCCOc1ccc(NC(=O)CC2C(=O)N(c3ccc(F)cc3)C(=O)N2CC(C)C)cc1 (stereo not given) -1.74%
CCCCOc1ccc(CNC(=O)C2CCCN(c3nnc(-n4c(C)ccc4C)s3)C2)cc1 (stereo not given) -4%
COc1cc(C(=O)N2CCC(c3nc4ccccc4s3)CC2)cc(OC)c1OC -1.71%
COc1ccc(C2=C(C)C(=NCc3ccc(OC(C)C)cc3)NS2(=O)=O)cc1 -7.7%
Cc1ccc2c(c1)sc1nc(=O)n(-c3ccc(Cl)c(Cl)c3)c(=O)n12 0.715%
Cc1ccc(S(=O)(=O)N2CCN(Cc3ccc4c(c3)OCO4)CC2)cc1 3.28%
CCc1ccc(-c2cc(C)no2)cc1S(=O)(=O)Nc1cc(OC)c(OC)c(OC)c1 -0.516%
COc1ccc(C(=O)NCCn2cc(SCC(=O)Nc3ccc(F)cc3)c3ccccc32)cc1 3.02%
CC(=O)Nc1ccc(S(=O)(=O)Nc2cccc(-c3ccc(N4CCCCCC4)nn3)c2)cc1 -1.29%
CCNc1ccc(-c2nc(-c3ccncc3)no2)cc1[N+](=O)[O-] 0%
Cc1nn(CCCC(=O)Nc2cccc(C(F)(F)F)c2)c(=O)c2nn(-c3ccccc3)c(C)c12 -1.67%
CCn1cc(C(=O)NCCc2ccc(Cl)cc2)c(=O)c2cc(S(=O)(=O)N3CCCCCC3)ccc21 5.97%
Cc1ccc2c(=O)c(C(=O)c3ccccc3)cn(CC(=O)Nc3ccccc3C)c2n1 -6.53%
COc1cc(NC(=O)Cn2cnc3sc(C)c(S(=O)(=O)N4CCC(C)CC4)c3c2=O)cc(OC)c1OC 10.8%
Cc1nc(-c2ccc(S(=O)(=O)NCc3ccc(OC(C)C)cc3)cc2)co1 -1.63%
O=C(COc1ccccc1F)Nc1ccc2nc(SCC(=O)N3CCCC3)sc2c1 -0.435%
Cc1cccc(OCC(=O)Nc2nonc2-c2ccc(Br)cc2)c1C -4.16%
CCOc1ccc(CC(=O)Nc2ccc3c(c2)N(C)C(=O)c2ccccc2S3)cc1OCC -8.99%
Cc1cccc(C)c1-n1ncc(C(=O)NCc2ccc3c(c2)OCO3)c1C1CCN(C(=O)OC(C)(C)C)CC1 -13.3%
CCCCN(C)CCCNC(=O)c1cc(=O)[nH]c2ccc(S(=O)(=O)N3CCCCC3)cc12 8.52%
CC(=O)N1c2ccc(S(=O)(=O)NCC3CCC(C(=O)Nc4ccccc4C)CC3)cc2CC1C (stereo not given) -25.7%
O=C(Nc1ccc(OC(F)(F)F)cc1)C1CCCN(S(=O)(=O)c2cccc3nonc23)C1 (stereo not given) -2.73%
COc1ccc2c(c1)CCc1sc(NC(=O)c3ccc(Cl)cc3)nc1-2 -6.81%
CCC1=Nc2cc(C(=O)NC(C)c3ccccc3)ccc2Sc2ccc(Cl)cc21 (stereo not given) -15.8%
COCCCNC(=O)CN1C(=O)COc2ccc(S(=O)(=O)N3CCCCCC3)cc21 -8.21%
Cc1ccc(NC(=O)CCc2c(C)nc3c(-c4ccccc4)c(C)nn3c2C)c(C)c1 -0.641%
COc1ccc(-n2c(=O)c3ccccc3n(CC(=O)NCCc3ccccc3)c2=O)c(OC)c1 23%
Cc1cccc(-n2cc(-c3ccccc3)c3c(NC(C)C)ncnc32)c1 -17.1%
CC1CCN(S(=O)(=O)c2cn(CC(=O)Nc3ccc(F)c(Cl)c3)c(=O)c3ccccc23)CC1 3.06%
COC(=O)c1ccccc1NC(=O)CN(c1ccccc1OC)S(C)(=O)=O 6.29%
Cc1ccc(NC(=O)CSc2nc(-c3ccc(F)cc3)nc3c2Cc2c(CO)cnc(C)c2O3)cc1C -1.42%
CN(Cc1ccccc1)C(=O)CCS(=O)(=O)c1cc(Br)cc2c1N(C(=O)C1CC1)CC2 -5.61%
O=C(COc1ccccc1F)Nc1ccccc1OCc1cc(=O)n2ccccc2n1 2.78%
CC(C)c1ccc(NC(=O)c2ccc(F)c(S(=O)(=O)N3CCCC3)c2)cc1 7.2%
CCCc1nnc(N2C(=O)c3oc4ccc(F)cc4c(=O)c3C2c2ccc(C(=O)OC)cc2)s1 (stereo not given) 1.64%
COc1ccccc1OCC(=O)Nc1nnc2n1CCS2 -2.3%
O=C(C1CCC1)N1CCc2cc(S(=O)(=O)N3CCN(c4ccccc4)CC3)ccc21 -9.41%
COc1cc2ccccc2cc1C(=O)N1CCN(c2nc3c(C)cc(C)cc3s2)CC1 -1.49%
CC1CCN(c2nnc(-n3cccc3CNc3cccc(F)c3)s2)CC1 -3.91%
CCOc1ccc(-n2cc(C(=O)Nc3ccccc3OCC)c3cc(OC)c(OC)cc3c2=O)cc1 -0.0125%
Cc1cccc(NC(=O)C2CCN(S(=O)(=O)c3cccc4nsnc34)CC2)c1 1.28%
CCC(C)NC(=O)Cn1c(=O)n(CC2CCC(C(=O)NC)CC2)c(=O)c2sccc21 (stereo not given) -4.81%
CCc1ccccc1NC(=O)N1CCN(c2nnc(C)c3c(C)n(-c4ccccc4)nc23)CC1 -3.04%
CCOC(=O)c1c(NC(=O)CS(=O)(=O)c2ccc(C)cc2)sc2c1CCC(C)C2 (stereo not given) -4.89%
CC1CCN(C(=O)Cn2cc(SCc3cccc(F)c3)c3ccccc32)CC1 -20.1%
Cc1ccc2nc(-c3ccccc3O)c(Nc3ccccc3C)n2c1 -2.72%
O=c1cc(-c2ccccc2)nc(SCc2nc(-c3ccc(C(F)(F)F)cc3)no2)[nH]1 3.84%
COc1ccc(CNC(=O)CCc2cn(Cc3cc(C)ccc3C)c3ccccc23)cc1OC -16.9%
CC(C)(C)c1ccc(-c2nc3cc(NC(=O)c4cc5ccccc5o4)ccc3o2)cc1 -3%
CCCOc1ccc(-c2nc3ccccc3c(=O)o2)cc1 5.38%
COc1ccc(NC(=O)NC2COc3ccccc3C2)c(OC)c1 (stereo not given) 9.41%
CC(C)c1ccc(NC(=O)C2CCN(S(=O)(=O)c3cccc4nsnc34)CC2)cc1 0.961%
O=C(Cn1ccn(-c2cccc(Cl)c2)c(=O)c1=O)NCCc1ccccc1 -0.488%
Cc1c(C(=O)Nc2nc(-c3ccc(F)cc3)ns2)oc2ccc(Br)cc12 2.92%
COc1ccc2c(c1)cc(CNc1ccc(OC)c(OC)c1)c(=O)n2CC(=O)Nc1ccc(F)cc1 -0.97%
CN(CC(=O)Nc1cccc(Cl)c1)S(=O)(=O)c1ccc2[nH]c3c(c2c1)CCCC3 0.346%
O=S(=O)(NCC(c1ccco1)S(=O)(=O)c1ccccc1)c1ccccc1 (stereo not given) -2.27%
Cc1c(C(=O)Nc2ccc(F)c(F)c2)oc2ccc(S(=O)(=O)N3CCCCC3)cc12 -1.11%

Potency, active:
CCCN1C(=O)C(O)(CC(=O)c2ccc(CC)cc2)c2cc(Br)ccc21 (stereo not given) 4.65 µM
